This note sets out measurements from PMC9911399, “Two distinct binding modes provide the RNA-binding protein RbFox with extraordinary sequence specificity”.

Residue numbers refer to the chain shown, from its start. Some of the results follow.

To fix the notation:
T1: RBFOX1 RRM (Homo sapiens, UniProt Q9NWB1 109-208)
T1 sequence: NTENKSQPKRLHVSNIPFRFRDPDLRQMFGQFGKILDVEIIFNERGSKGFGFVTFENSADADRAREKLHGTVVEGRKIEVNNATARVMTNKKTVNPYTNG

B1: GGUCAUA (DNA:RNA)
RNA: GGGAGACCGGAAUUCAGAUUGUCCGGUCAUAUUAAAUCCCGUCGUAGCCACCA
DNA 1: CAATCTGAATTCCGGTCTCCC
DNA 2: TGGTGGCTACGACGGGATT
B2: GGUAUGC (DNA:RNA)
RNA: B1 RNA with C28A, A29U, U30G, A31C
DNA 1: CAATCTGAATTCCGGTCTCCC
DNA 2: TGGTGGCTACGACGGGATT
B3: UGAGGAU (DNA:RNA)
RNA: B1 RNA with G25U, U27A, C28G, A29G, U30A, A31U
DNA 1: CAATCTGAATTCCGGTCTCCC
DNA 2: TGGTGGCTACGACGGGATT
B4: ACGCAUU (DNA:RNA)
RNA: B1 RNA with G25A, G26C, U27G, A31U
DNA 1: CAATCTGAATTCCGGTCTCCC
DNA 2: TGGTGGCTACGACGGGATT
B5: UAGGGCG (DNA:RNA)
RNA: GGGAGACCGGAAUUCAGAUUGUCCUAGGGCGUUAAAUCCCGUCGUAGCCACCA
DNA 1: CAATCTGAATTCCGGTCTCCC
DNA 2: TGGTGGCTACGACGGGATT
B6: GUCCAGU (DNA:RNA)
RNA: B1 RNA with G26U, U27C, U30G, A31U
DNA 1: CAATCTGAATTCCGGTCTCCC
DNA 2: TGGTGGCTACGACGGGATT
B7: CUGAGUG (DNA:RNA)
RNA: B5 RNA with U25C, A26U, G28A, C30U
DNA 1: CAATCTGAATTCCGGTCTCCC
DNA 2: TGGTGGCTACGACGGGATT
B8: AUAGCCC (DNA:RNA)
RNA: B5 RNA with U25A, A26U, G27A, G29C, G31C
DNA 1: CAATCTGAATTCCGGTCTCCC
DNA 2: TGGTGGCTACGACGGGATT
B9: UAAUUGA (DNA:RNA)
RNA: B5 RNA with G27A, G28U, G29U, C30G, G31A
DNA 1: CAATCTGAATTCCGGTCTCCC
DNA 2: TGGTGGCTACGACGGGATT
B10: UCUCUUU (DNA:RNA)
RNA: B1 RNA with G25U, G26C, A29U, A31U
DNA 1: CAATCTGAATTCCGGTCTCCC
DNA 2: TGGTGGCTACGACGGGATT
B11: AGAGUCG (DNA:RNA)
RNA: B5 RNA with U25A, A26G, G27A, G29U
DNA 1: CAATCTGAATTCCGGTCTCCC
DNA 2: TGGTGGCTACGACGGGATT
B12: UAUUGGG (DNA:RNA)
RNA: B5 RNA with G27U, G28U, C30G
DNA 1: CAATCTGAATTCCGGTCTCCC
DNA 2: TGGTGGCTACGACGGGATT
B13: UGAGAGA (DNA:RNA)
RNA: B1 RNA with G25U, U27A, C28G, U30G
DNA 1: CAATCTGAATTCCGGTCTCCC
DNA 2: TGGTGGCTACGACGGGATT
B14: AGGGCCU (DNA:RNA)
RNA: B5 RNA with U25A, A26G, G29C, G31U
DNA 1: CAATCTGAATTCCGGTCTCCC
DNA 2: TGGTGGCTACGACGGGATT
B15: UAGGUCG (DNA:RNA)
RNA: B5 RNA with G29U
DNA 1: CAATCTGAATTCCGGTCTCCC
DNA 2: TGGTGGCTACGACGGGATT
B16: AAUCUUC (DNA:RNA)
RNA: B1 RNA with G25A, G26A, A29U, A31C
DNA 1: CAATCTGAATTCCGGTCTCCC
DNA 2: TGGTGGCTACGACGGGATT
B17: AUCUCAA (DNA:RNA)
RNA: B1 RNA with G25A, G26U, U27C, C28U, A29C, U30A
DNA 1: CAATCTGAATTCCGGTCTCCC
DNA 2: TGGTGGCTACGACGGGATT
B18: AAUAAGA (DNA:RNA)
RNA: B1 RNA with G25A, G26A, C28A, U30G
DNA 1: CAATCTGAATTCCGGTCTCCC
DNA 2: TGGTGGCTACGACGGGATT
B19: UUGCUCA (DNA:RNA)
RNA: B5 RNA with A26U, G28C, G29U, G31A
DNA 1: CAATCTGAATTCCGGTCTCCC
DNA 2: TGGTGGCTACGACGGGATT
B20: CGUUAUU (DNA:RNA)
RNA: B1 RNA with G25C, C28U, A31U
DNA 1: CAATCTGAATTCCGGTCTCCC
DNA 2: TGGTGGCTACGACGGGATT
B21: UCAUCUU (DNA:RNA)
RNA: B1 RNA with G25U, G26C, U27A, C28U, A29C, A31U
DNA 1: CAATCTGAATTCCGGTCTCCC
DNA 2: TGGTGGCTACGACGGGATT
B22: CGUCUCU (DNA:RNA)
RNA: B1 RNA with G25C, A29U, U30C, A31U
DNA 1: CAATCTGAATTCCGGTCTCCC
DNA 2: TGGTGGCTACGACGGGATT
B23: GGGCAAU (DNA:RNA)
RNA: B1 RNA with U27G, U30A, A31U
DNA 1: CAATCTGAATTCCGGTCTCCC
DNA 2: TGGTGGCTACGACGGGATT
B24: CGAGGGA (DNA:RNA)
RNA: B1 RNA with G25C, U27A, C28G, A29G, U30G
DNA 1: CAATCTGAATTCCGGTCTCCC
DNA 2: TGGTGGCTACGACGGGATT
B25: CCGUGAA (DNA:RNA)
RNA: B5 RNA with U25C, A26C, G28U, C30A, G31A
DNA 1: CAATCTGAATTCCGGTCTCCC
DNA 2: TGGTGGCTACGACGGGATT
B26: UCCAUUA (DNA:RNA)
RNA: B1 RNA with G25U, G26C, U27C, C28A, A29U
DNA 1: CAATCTGAATTCCGGTCTCCC
DNA 2: TGGTGGCTACGACGGGATT
B27: AAGCGGU (DNA:RNA)
RNA: B5 RNA with U25A, G28C, C30G, G31U
DNA 1: CAATCTGAATTCCGGTCTCCC
DNA 2: TGGTGGCTACGACGGGATT
B28: AUGGGCC (DNA:RNA)
RNA: B5 RNA with U25A, A26U, G31C
DNA 1: CAATCTGAATTCCGGTCTCCC
DNA 2: TGGTGGCTACGACGGGATT
B29: CGUAGUA (DNA:RNA)
RNA: B1 RNA with G25C, C28A, A29G
DNA 1: CAATCTGAATTCCGGTCTCCC
DNA 2: TGGTGGCTACGACGGGATT
B30: UAGCGAA (DNA:RNA)
RNA: B5 RNA with G28C, C30A, G31A
DNA 1: CAATCTGAATTCCGGTCTCCC
DNA 2: TGGTGGCTACGACGGGATT
B31: AAUCAGA (DNA:RNA)
RNA: B1 RNA with G25A, G26A, U30G
DNA 1: CAATCTGAATTCCGGTCTCCC
DNA 2: TGGTGGCTACGACGGGATT

The target of this assay is T1, RBFOX1 RRM. As to the kind of experiment: EMSA; HiTS-Eq, 1 nM pool, 10 min; buffer printed only for the single-RNA assays: 10 mM Tris pH 7.5, 150 mM NaCl, 3.4 mM EDTA, 0.001% NP-40, 30 C. To be noted: tags: His6 N-terminal (pET28a); label: 5' 32P. The essentials:
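Purified RbFox RRM, wild type or mutant, was incubated for 10 min in 50 µL with 1 nM of a 5′-radiolabelled RNA pool carrying 7 randomized nucleotides, whose flanks were annealed to DNA oligonucleotides, over a series of increasing protein concentrations. Unbound RNA was resolved on 8% native PAGE, cut out, reverse-transcribed, barcoded by PCR and sequenced on an Illumina HiSeq 2500. Relative association constants were derived from changes in read counts for each RNA species versus the control reaction and normalised to the cognate motif.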
Take B1: the binding signal was 0.00307 KA relative to UGCAUGU.

Take B2: the binding signal was 0.0153 KA relative to UGCAUGU.

In the case of B3, the binding signal is 0.00655 KA relative to UGCAUGU.

As to B4, the binding signal is 0.0104 KA relative to UGCAUGU.

Turning to B5, the binding signal is 0.00908 KA relative to UGCAUGU.

Consider B6, for which the binding signal was 0.0116 KA relative to UGCAUGU.

In the case of B7, the binding signal was 0.0298 KA relative to UGCAUGU.

Regarding B8, the binding signal was 0.00434 KA relative to UGCAUGU.

Turning to B9, the binding signal was 0.0119 KA relative to UGCAUGU.

Take B10: the binding signal is 0.00515 KA relative to UGCAUGU.

On to B11, for which the binding signal was 0.0125 KA relative to UGCAUGU.

Consider B12, for which the binding signal is 0.00424 KA relative to UGCAUGU.

With B13, the binding signal is 0.0162 KA relative to UGCAUGU.

On to B14, for which the binding signal is 0.0174 KA relative to UGCAUGU.

B15: the binding signal is 0.0145 KA relative to UGCAUGU.

For B16, the binding signal was 0.00213 KA relative to UGCAUGU.

For B17, the binding signal was 0.000569 KA relative to UGCAUGU.

Regarding B18, the binding signal was 0.00286 KA relative to UGCAUGU.

In the case of B19, the binding signal was 0.0194 KA relative to UGCAUGU.

For B20, the binding signal is 0.00594 KA relative to UGCAUGU.

Turning to B21, the binding signal was 0.0034 KA relative to UGCAUGU.

As to B22, the binding signal was 0.00298 KA relative to UGCAUGU.

As for B23, the binding signal is 0.0118 KA relative to UGCAUGU.

For the molecule B24, the binding signal was 0.00402 KA relative to UGCAUGU.

As for B25, the binding signal is 0.0108 KA relative to UGCAUGU.

B26: the binding signal is 0.003 KA relative to UGCAUGU.

Consider B27, for which the binding signal is 0.00838 KA relative to UGCAUGU.

For the molecule B28, the binding signal is 0.0157 KA relative to UGCAUGU.

For B29, the binding signal was 0.00483 KA relative to UGCAUGU.

Take B30: the binding signal is 0.00919 KA relative to UGCAUGU.

For B31, the binding signal was 0.00408 KA relative to UGCAUGU.
